Patent US20240190958A1, “NOVEL ANTIBODY DRUG CONJUGATES WITH NOVEL NAPI2B ANTIBODIES, THERAPEUTIC METHODS AND USES THEREOF” (Tubulis GmbH, priority 2022, published 2024)

B1: AV25-P5(PEG24)-VC-PAB-Exatecan DAR 8: ADC of AV25 (LALA) antibody conjugated to P5(PEG24)-VC-PAB-Exatecan at DAR8; TUB-040 presumably the same ADC (conjugate)
heavy: EVQLVQSGAEVVKPGASVKMSCKASGYTFTGYIIHWVKQAPGQGLEWIGAIYPGSGATSYKQKFRGRATLTADTSTSTVYMELSSLRSEDSAVYYCARGETARATFAYWGQGTLVTVSS[human IgG1 constant region with changes not shown]
light: DIQMTQSPSSLSASVGDRVTITCSASQDIGNFLNWYQQKPGKTVKVLIYYASSLYSGVPSRFSGSGSGTDYTLTISSLQPEDFATYYCQQYSKLPLTFGQGTKLELKRTVAAPSVFIFPPSDEQLKSGTASVVCLLNNFYPREAKVQWKVDNALQSGNSQESVTEQDSKDSTYSLSSTLTLSKADYEKHKVYACEVTHQGLSSPVTKSFNRGEC
B2: AV25 HC-wt: Fc-wildtype AV25 mAb, heavy chain SEQ ID NO: 61 (antibody)
heavy: EVQLVQSGAEVVKPGASVKMSCKASGYTFTGYIIHWVKQAPGQGLEWIGAIYPGSGATSYKQKFRGRATLTADTSTSTVYMELSSLRSEDSAVYYCARGETARATFAYWGQGTLVTVSS[human IgG1 constant region not shown]
light: B1 light
B3: AV25: humanized anti-NaPi2b IgG1 mAb clone, Fc-silenced (LALA); light chain SEQ ID NO: 6, heavy chain SEQ ID NO: 7 (antibody)
heavy: EVQLVQSGAEVVKPGASVKMSCKASGYTFTGYIIHWVKQAPGQGLEWIGAIYPGSGATSYKQKFRGRATLTADTSTSTVYMELSSLRSEDSAVYYCARGETARATFAYWGQGTLVTVSS[human IgG1 constant region with changes not shown]
light: B1 light
modifications: Heavy chain without a signal seqeunce; Light chain without a signal seqeunce

Columns and labels:
[1] = test system: OVCAR-3 cells; experiment: In vivo efficacy in a cell line derived xenograft model (CDX); design: species or system CB17-Scid mice; conditions: single dose 1 mg/kg
Experimental: In brief, 1×10^7 OVCAR-3 cells (100 μL+100 μL Matrigel) were subcutaneously injected to CB17-Scid mice.

[2] = test system: patient derived tumor models (lung, endometrial and ovarian cancer); experiment: In vivo efficacy in patient derived xenograft models (PDX), 10 mg/kg; design: species or system NMRI nu/nu mice; conditions: 10 mg/kg once at day 0, intravenous
[3] = molecular target: T1, HEK293 cells overexpressing Napi2b (SLC34A2) (Homo sapiens, UniProt O95436); experiment: Binding to human NaPi2b evaluated by flow cytometry; conditions: HEK293 cells transfected with Napi2a
T1 construct: human or rat full-length Napi2b-mCherry-(GGGS)3×-mCherry expression construct; expressed in transfected cells; host or cells: HEK293
T1 sequence (O95436 1-690): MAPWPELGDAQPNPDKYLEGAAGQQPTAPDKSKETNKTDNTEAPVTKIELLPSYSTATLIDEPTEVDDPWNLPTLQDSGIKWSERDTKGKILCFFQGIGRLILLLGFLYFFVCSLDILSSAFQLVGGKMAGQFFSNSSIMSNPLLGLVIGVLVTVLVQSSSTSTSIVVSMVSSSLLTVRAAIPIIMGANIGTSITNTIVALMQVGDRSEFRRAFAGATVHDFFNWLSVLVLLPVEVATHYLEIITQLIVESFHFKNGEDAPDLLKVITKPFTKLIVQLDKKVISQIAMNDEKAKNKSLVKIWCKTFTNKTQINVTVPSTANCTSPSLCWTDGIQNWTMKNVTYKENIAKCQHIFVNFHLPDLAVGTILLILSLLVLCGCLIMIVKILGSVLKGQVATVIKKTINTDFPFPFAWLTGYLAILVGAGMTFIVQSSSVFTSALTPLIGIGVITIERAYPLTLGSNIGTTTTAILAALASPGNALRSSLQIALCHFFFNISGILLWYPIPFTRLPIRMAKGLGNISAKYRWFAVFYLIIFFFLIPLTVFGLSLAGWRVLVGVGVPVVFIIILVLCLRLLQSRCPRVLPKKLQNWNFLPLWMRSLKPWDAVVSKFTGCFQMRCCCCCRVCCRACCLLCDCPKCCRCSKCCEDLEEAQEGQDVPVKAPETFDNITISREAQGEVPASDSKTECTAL
Experimental: To determine concentration-dependent binding, HEK293 cells transiently or stably expressing human Napi2a-, Napi2b- and Napi2c-mCherry were incubated with antibodies or ADCs in concentrations ranging from 0.002 to 200 nM, stained with an Alexa-dye-labeled anti-human IgG H+L secondary antibody (Thermo Fisher Scientific), and analyzed by flow cytometry. Mean fluorescence intensity (MFI) ratios were normalized to the non-specific binding control. The assay was performed in duplicates and data points were analyzed by a non-linear regression using a one-site specific binding model using Prism 9 software.

[4] = test system: HCC-78 cells; experiment: DNA damage and apoptosis markers by flow cytometry (HCC-78); format: cell-based; conditions: 0.05-12 μg/ml, 72 h
Experimental: (§1) Topoisomerase-I inhibition by delivery of exatecan via the AV25-P5(PEG24)-VC-PAB-Exatecan DAR8 ADC induces DNA damage as detected by the accumulation of cleaved PARP, active caspase 3 and phosphorylated histon 2AX (pH2AX). OVCAR-3 and HCC-78 cells (both Napi2b^high) were treated with increasing concentrations (0.05-12 μg/ml) of AV25-P5(PEG24)-VC-PAB-Exatecan or an Isotype control (isotype-P5(PEG24)-VC-PAB-Exatecan for 72 h. Cells were stained with live/dead stain (Thermo Fisher Scientific) and after fixation and permeabilization using the Fixation/Permeabilization kit (BD Biosciences) for the DNA damage markers active caspase 3, cleaved PARP and pH2AX (Ser-139) (all BD Biosciences) and analyzed by flow cytometry. Graphs show means of n=2±SEM.

[5] = test system: OVCAR-3 cells; experiment: DNA damage and apoptosis markers by flow cytometry (OVCAR-3); format: cell-based; conditions: 0.05-12 μg/ml, 72 h
Experimental: as §1

[6] = test system: OVCAR-3 and HCC-78 target cells; experiment: Calcein release-based ADCC assay with human NK cells; format: cell-based; conditions: 15 μg/ml, NK:target 4:1, 4 h
Experimental: and AV25-P5(PEG24)-VC-PAB-Exatecan DAR8 vs the isotypes and an anti-MHC-I positive control (Invivogen) was analyzed, which is mediated after interaction with FcγRIIIa (CD16). For the Calcein release-based antibody-dependent cellular cytotoxicity (ADCC) assay, peripheral blood mononuclear cells (PBMCs) were isolated from healthy donor buffy coats (purchased from DONAS GmbH) using LeucoSep tubes (Greiner Bio-One) and Histopaque®-1077 (density 1.077 g/ml, Merck) density gradient according to standard protocols. Afterwards, natural killer (NK) cells were MACS (magnetic cell separation)-sorted using human NK cell isolation kit (Miltenyi Biotec) by negative selection according to the manufacturer's instructions yielding untouched human primary NK cells. Napi2b-positive target cells OVCAR-3 and HCC-78 (both Napi2b^high) were stained with 16 μM Calcein AM (Thermo Fisher Scientific). 40.000 NK cells and 10.000 Calcein-stained target cells were incubated at a 4:1 ratio in the presence of 15 μg/ml antibodies or ADCs. Cells permeabilized with 2.5% Triton X 100 (Merck) served as a positive control for maximum Calcein release. After 4 h, supernatants were transferred to a flat black non-binding 96-well plate (Greiner Bio-One) and fluorescence was measured at 485/535 nM via the Infinite M200 Pro reader (Tecan). The percent specific killing was calculated by dividing the Calcein released by antibody-mediated killing minus background Calcein release (NKs+targets) from Calcein released by Triton X-permeabilized cells (maximum killing) minus background Calcein release (targets only). Graphs show means of n=2±SEM.

[7] = test system: Lu7700 non-small cell lung cancer (NSCLC) model; experiment: Dose response PDX study (Lu7700); format: in vivo, NMRI nu/nu mice; conditions: once at day 0, 5, 3 or 1 mg/kg intravenous
[8] = 5, 3 and 1 mg/kg
Experimental: All animal experiments were conducted in accordance with German animal welfare law and approved by local authorities. […] Treatment was initiated when tumours reached a mean tumour volume of 0.1-0.15 cm^3. […] Tumour volumes, body weights and general health conditions were recorded throughout the whole study.

[9] = 10 and 20 mg/kg intravenous

| Molecule | tumor relapse until the end of the observation period [1] | efficacy compared to the vehicle control [2] | specificity of binding among Napi2a, Napi2b and Napi2c [3] | accumulation of DNA damage (cleaved PARP-, active caspase 3- and pH2AX-positive cells) [4] | accumulation of DNA damage (cleaved PARP-, active caspase 3- and pH2AX-positive cells) [5] | ADCC activity in human NK cells [6] | efficacy compared to the vehicle control [7] | exposure profiles [8] | in vivo stability of the ADC (total vs intact ADC) [8] | PK exposure profile [9] |
| --- | --- | --- | --- | --- | --- | --- | --- | --- | --- | --- |
| B1 | does not show any tumor relapse | very high and long-lasting efficacy | bind specifically to NaPi2b | concentration-dependent accumulation of DNA damage | concentration-dependent accumulation of DNA damage | did not induce ADCC or only in very low amounts | highest and long-lasting efficacy | dose proportional exposure profiles | high stability | good exposure profile, without enhanced in vivo clearance |
| B2 |  |  |  |  |  | triggered high ADCC activity |  |  |  |  |
| B3 |  |  | bind specifically to NaPi2b |  |  | did not induce ADCC or only in very low amounts |  |  |  |  |
